The source of these data is PubChem BioAssay AID1508642 (National Center for Advancing Translational Sciences (NCATS), 2021).

Hit rate of the full screen: of about 43,000 compounds, about 200 (0.47%) were called active. About 12% were inconclusive and are not listed. Calls follow the shape of the dose curve; as a rule, active = well fitted cell-killing curve with a large enough effect; inconclusive = small, poorly fitted or top-dose-only effect, or effect the other way; inactive = flat fitted curve, though single readings scatter. Some of the results follow.
% is scaled to controls: 0 for no effect and ±100 for the full control effect.

The nature of this experiment: Cell viability qHTS assay in S16 Pmp22-F2sN cells. Also: nearly all actives have a fitted effect of over 65% in size. The conditions noted are these: S16 Pmp22-F2sN Schwann cells (luciferase reporters placed in the Pmp22 gene) viability, CellTiter-Glo, 24 h; series mostly up to 57.5 µM; activity change, negative = cytotoxicity: at the top concentration. In a few lines:
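Luminescence from CellTiter-Glo, read by CCD camera after a 15 min room-temperature incubation, served as the viability signal. Reporter Schwann cells (S16 Pmp22-F2sN) had been treated with pin-transferred compounds for 24 h at 37C.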
Background: qHTS replaces the single test concentration by a dilution series.
`O=C(Cc1ccccc1)Nc1c(C(=O)c2ccccc2)oc2ccccc12`: the “activity change, negative = cytotoxicity” value was inactive: 13.2%.

With `COc1ccc(CNC(=O)c2cc3cc4ccc(C)cc4nc3o2)cc1`, the “activity change, negative = cytotoxicity” value is inactive: -4.13%.

As for `CCc1ccc(C(=O)COC(=O)C(Cc2c[nH]c3ccccc23)NC(=O)c2ccc(CC)cc2)cc1` (stereo unspecified), the “activity change, negative = cytotoxicity” value was inactive: 11.3%.

For the compound `Cc1ccc(NC(=O)CSc2nnc(-c3nnn(-c4ccc(F)cc4)c3C)o2)cc1Br`, the “activity change, negative = cytotoxicity” value is inactive: 19.4%.

On to `Cc1ccc(OCC(=O)Nc2nonc2-c2ccc(C)c(C)c2)cc1C`, for which the “activity change, negative = cytotoxicity” value was inactive: 0.372%.

With `Cc1ccc(NC(=O)CN2C(=O)COc3ccc(S(=O)(=O)N4CCCCCC4)cc32)cc1Cl`, the “activity change, negative = cytotoxicity” value was inactive: 0.908%.

For `CCCCn1c(=NC(=O)C(C)(C)Oc2ccc(Cl)cc2)c(C(=O)OCC)cc2c(=O)n3ccccc3nc21`, the “activity change, negative = cytotoxicity” value is inactive: 9.11%.

`COc1cccc(N2CCN(C(=O)c3cc4c(s3)-c3c(C)cccc3OC4)CC2)c1`: the “activity change, negative = cytotoxicity” value is inactive: -0.0524%.

For the compound `O=C(Nc1ccc(Br)cc1)c1cc(-c2cccs2)nc2ccccc12`, the “activity change, negative = cytotoxicity” value is inactive: -26.9%.

Regarding `CC(NC(=O)C1CCN(S(=O)(=O)c2ccc(F)cc2)CC1)c1ccccc1` (stereo unspecified), the “activity change, negative = cytotoxicity” value was inactive: -5.76%.

As for `O=C1CSC2(C(=O)N(Cc3ccccc3F)c3ccccc32)N1c1cccc(C(F)(F)F)c1` (stereo unspecified), the “activity change, negative = cytotoxicity” value is inactive: 22.4%.

In the case of `O=C(Cn1ncc2c3ccccc3n(Cc3ccc(Cl)cc3)c2c1=O)NCCC1=CCCCC1`, the “activity change, negative = cytotoxicity” value was inactive: 0.0531%.

In the case of `CN(C)CCNC(=O)C1CCN(c2ncnc3c2nc2n3CCCCC2)CC1`, the “activity change, negative = cytotoxicity” value was inactive: -1.59%.

For `COc1ccc(-c2cc(C(=O)Oc3ccc(C)cc3)c3ccccc3n2)cc1`, the “activity change, negative = cytotoxicity” value is inactive: 10.4%.

Consider `CC(C)Oc1ccc(C(=O)N2CCC(c3nc4ccccc4o3)CC2)cc1`, for which the “activity change, negative = cytotoxicity” value was inactive: -3.06%.

With `CC(C)c1ccc(NC(=O)CSC2=Nc3ccccc3C3=NC(CC(=O)NCc4cccs4)C(=O)N23)cc1` (stereo unspecified), the “activity change, negative = cytotoxicity” value is inactive: -18.2%.

For `CC(=O)Nc1ccc(NC(=O)CSc2nccn2Cc2ccc3c(c2)OCO3)cc1`, the “activity change, negative = cytotoxicity” value was inactive: -6.85%.

As to `COc1cc(NC(=O)CSc2ncc3c(n2)-c2ccc(Cl)cc2N(Cc2ccccc2)S3(=O)=O)cc(OC)c1`, the “activity change, negative = cytotoxicity” value was inactive: -3.26%.

Take `Cc1ccccc1NC(=O)c1cn(-c2ccccc2)nc1-c1ccccc1`: the “activity change, negative = cytotoxicity” value is inactive: -1.28%.

`Cc1ccccc1-c1ccnc2[nH]n(-c3ccccc3)c(=O)c12`: the “activity change, negative = cytotoxicity” value was inactive: 20%.

With `O=S(=O)(NCC(c1ccco1)N1CCOCC1)c1ccc(Br)cc1` (stereo unspecified), the “activity change, negative = cytotoxicity” value is inactive: 13.6%.

`COc1ccc(OC)c(CN2CCN(S(=O)(=O)c3ccccc3)CC2)c1`: the “activity change, negative = cytotoxicity” value is inactive: -8.21%.

Regarding `CCCn1c2ccccc2c2cnn(CC(=O)NCCCN3CCCCC3)c(=O)c21`, the “activity change, negative = cytotoxicity” value is inactive: -8.54%.

For the compound `CCOc1ccc(NC(=O)c2sc3nc4c(c(-c5ccccc5)c3c2N)C(=O)CC(C)(C)C4)cc1`, the “activity change, negative = cytotoxicity” value is inactive: -0.289%.

For `Cc1ccc(S(=O)(=O)c2cnc(SCC(=O)Nc3ccc4c(c3)OCCO4)[nH]c2=O)cc1Cl`, the “activity change, negative = cytotoxicity” value is inactive: 11.3%.

Consider `CCOc1cc(C2C(C(=O)OC)=C(C)NC3=C2C(=O)c2ccccc23)ccc1OC` (stereo unspecified), for which the “activity change, negative = cytotoxicity” value was inactive: -4.88%.
